Source: PubChem BioAssay AID504832 (National Center for Advancing Translational Sciences (NCATS), 2011)
Hit rate of the full screen: of about 310,000 compounds, about 18,000 (5.8%) were called active. The inconclusive results got no clear call from the source; some entries with a clear call stand among them for comparison. Calls follow the shape of the dose curve; as a rule, active = well fitted inhibition curve with a large enough effect; inconclusive = small, poorly fitted or top-dose-only effect, or another doubt; inactive = no such curve, though single readings can be large or run the other way. Potencies of inconclusive entries are left out as doubtful fits.

Test: Primary qHTS for delayed death inhibitors of the malarial parasite plastid, 48 hour incubation
Conditions: P. falciparum luciferase growth in erythrocytes; series mostly up to 28.7 µM
In short: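 A one-generation exposure of luciferase-tagged malaria parasites in RPMI 1640/Albumax erythrocyte culture, 37 C and 5% CO2. Inhibition is inferred from decreased luminescence after adding detection reagent.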
Potency is read from the fitted curve at half-maximal effect; tags tell the direction and shape of the fitted curve.

Row | Compound | Potency
1 | COc1ccc(N/C(=N/c2nc(C)cc(C)n2)NC(=O)Nc2ccc(Cl)c(Cl)c2)c(OC)c1 | active: 11.7 µM
2 | O=C(CSc1nnc(Cc2cccs2)n1C1CC1)NC1CCS(=O)(=O)C1 (stereo not given) | inconclusive [inhibitor, partial curve, poor fit]
3 | Cc1nnc(SC(C)C(=O)Nc2ccc3ccccc3c2)[nH]c1=O (stereo not given) | inactive
4 | CC(C)C(=O)Nc1ccc(C(=O)Nc2nnc(C(C)(C)C)s2)cc1 | inconclusive [inhibitor, single point]
5 | Cc1ccc(NC(=O)COc2ccc(S(=O)(=O)N3CCOCC3)cc2)cc1 | inconclusive [inhibitor, single point]
6 | Cc1nc2ccccc2c(=O)n1NC(=O)c1ccc(Cl)c(Cl)c1 | inactive
7 | O=c1[nH]c(C2CCN(S(=O)(=O)c3ccc(C(F)(F)F)cc3)CC2)nc2c1nnn2Cc1ccc(F)cc1 | active: 11.7 µM
8 | Fc1nc(N2CCCC2)c(F)c(Oc2ccccc2Oc2c(F)c(F)nc(N3CCCC3)c2F)c1F | inconclusive [inhibitor, partial curve]
9 | CN1C(=O)S/C(=C/c2ccc(OCc3cccc(C(=O)O)c3)cc2)C1=O | inactive
10 | CN(CC(=O)O/N=C(\N)c1cccc([N+](=O)[O-])c1)S(=O)(=O)c1ccccc1 | inactive
11 | O=C(CSc1n[nH]c(-c2ccncc2)n1)Nc1ccc(Br)cc1 | inactive
12 | O=C(N/N=C/c1ccccn1)c1ccc([N+](=O)[O-])cc1 | inconclusive [inhibitor, single point]
13 | ClC(/C=N/n1cnnc1)=C/c1ccccc1 | active: 11.7 µM
14 | CCOC(=O)c1c(C)[nH]c(C)c1S(=O)(=O)NCC1CCN(Cc2ccc(C)cc2)CC1 | inconclusive [inhibitor, single point]
15 | O=C1OC(c2ccc(F)cc2)=C/C1=C\c1ccc([N+](=O)[O-])o1 | inactive
16 | COc1ccc(SC[C@H](Cc2ccccc2)N2CCN(CCc3ccccc3)CCC2=O)cc1 | inconclusive [inhibitor, single point]
17 | NS(=O)(=O)c1ccc(CNC(=O)c2ccc(Cl)c(S(=O)(=O)NCc3ccccc3)c2)cc1 | inconclusive [inhibitor, single point]
18 | CC(C)(C)n1nnnc1C(c1ccc(F)cc1)N1CCN(Cc2ccc3c(c2)OCO3)CC1 (stereo not given) | inconclusive [inhibitor, single point]
19 | COC(=O)c1cc(COC(=O)c2cccnc2SC)oc1C | inactive
20 | Cc1ccc(-n2c(SCC(=O)NCCC3=CCCCC3)nc3n[nH]c(C)c3c2=N)cc1Cl | inconclusive [inhibitor, full curve, poor fit]
21 | O=c1c(Cc2ccccc2)c(O)c2cccc3c4c(n1c23)CCCC4 | inactive
22 | Clc1nnc(Cl)c2c1ncn2Cc1ccccc1 | inconclusive [inhibitor, single point]
23 | CN1CCCN(C(=O)COc2ccc(Br)cc2)CC1 | inconclusive [inhibitor, partial curve, poor fit]
24 | Nc1nc(=S)c2ncn(C3CCCC3)c2[nH]1 | inconclusive [inhibitor, partial curve, poor fit]

Row | Compound | Potency
25 | Cc1c(Cl)cccc1NC(=O)CC(Cc1ccccc1)C(=O)O (stereo not given) | inactive
26 | COc1ccc(C(=O)CC(=O)C(=O)Nc2c(C)cccc2C)cc1 | inconclusive [inhibitor, single point]
27 | COc1ccc(-c2cc(C)no2)cc1S(=O)(=O)Nc1cccc(CN2CCCC2)c1 | active: 14.7 µM
28 | CN1CCN(c2ccccc2NC(=O)c2c(F)cccc2F)CC1 | inconclusive [inhibitor, single point]
29 | Cc1onc(-c2ccccc2)c1C(=O)Nc1ccc(Br)cc1Cl | active: 14.7 µM
30 | O=C(c1ccc2c(c1)OCO2)C1CCCN(Cc2ccc3cccc(F)c3n2)C1 (stereo not given) | inactive
31 | COc1cccc(CNC23CC4CC(CC(C4)C2)C3)c1OCc1ccccc1 | active: 10.4 µM
32 | CCN(CC(=O)Nc1c(F)cccc1F)C(=O)Cc1sc(C)nc1-c1ccc(F)cc1 | inconclusive [inhibitor, single point]
33 | COc1ccc(C(=O)NC(C)CCc2ccccc2)c(O)c1 (stereo not given) | inconclusive [inhibitor, full curve]
34 | COc1ccc(/C=N/NC(=O)c2cccc(S(=O)(=O)N3CCCC3)c2)cc1O | inconclusive [inhibitor, single point]
35 | CCCn1c(N)c(C(=O)CN(C)CC(=O)Nc2cc(C)ccc2C)c(=O)[nH]c1=O | inactive
36 | COc1ccc(CN=C2NN=C(c3ccccc3)CS2)cc1 | inconclusive [inhibitor, single point]
37 | Cn1nnc(C(O)CNCc2cccs2)n1 (stereo not given) | inconclusive [inhibitor, full curve, poor fit]
38 | CC(C)(C)c1ccc(C2=CSC3=NCCN23)cc1 | inconclusive [inhibitor, partial curve]
39 | C=CCNC(=S)Nc1ccccc1 | inactive
40 | Cc1cc2nn(-c3ccc(F)cc3)nc2cc1N | inactive
41 | COc1ccc(CC(=O)Nc2ccc(F)c(F)c2F)cc1S(=O)(=O)N1CCOCC1 | active: 11.7 µM
42 | CC(=NCCc1c[nH]c2ccccc12)c1c(O)n(Cc2ccccc2)c(=O)[nH]c1=O | inconclusive [inhibitor, partial curve]
43 | COc1ccc(CN2CCC(n3nccc3NC(=O)CCCc3ccccc3)CC2)cc1C | inactive
44 | CCOC(=O)c1n[nH]n2c1nc(=O)c1ccccc12 | inconclusive [inhibitor, partial curve, poor fit]
45 | CCC(=O)N(CCC1(C(C)C)CCOC(C)(C)C1)C(C)c1cccs1 (stereo not given) | inconclusive [inhibitor, single point]
46 | COc1ccc(C2C3=C(Nc4ncnn42)c2ccccc2CC3)cc1OC (stereo not given) | inconclusive [inhibitor, single point]
47 | Cc1ccc(N)c(N)c1 | inactive
48 | O=C(CCSc1nc2ccccc2o1)Nc1ccccc1 | inactive

Row | Compound | Potency
49 | c1nc(NCCN2CCOCC2)c2sc3nc(N4CCOCC4)c4c(c3c2n1)CCC4 | active: 7.38 µM
50 | CC1CCC(NC(=O)Cn2c3c(c(-c4ccccc4Cl)cc2=O)CCC3)CC1 (stereo not given) | inconclusive [inhibitor, partial curve, poor fit]
51 | Cc1ccnc(SCC(=O)N2CCc3ccccc3C2)n1 | inconclusive [inhibitor, single point]
52 | CCOc1ccccc1NC(=O)c1ccccc1NC(=O)c1ccco1 | inconclusive [inhibitor, single point]
53 | CN(C)S(=O)(=O)c1ccc(C(=O)Nc2ccccc2C(=O)O)cc1 | inactive
54 | CC(C)COc1ccc(C(=O)N(Cc2ccco2)C2CCS(=O)(=O)C2)cc1 (stereo not given) | inconclusive [inhibitor, single point]
55 | Cc1c(C(=O)NCC(c2ccco2)N(C)C)oc2c(Cl)cccc12 (stereo not given) | inactive
56 | COC(=O)c1cc(=O)n(Cc2ccc(F)cc2)c(=Nc2ccccc2)s1 | inconclusive [inhibitor, single point]
57 | CCOC(=O)/C(=C\c1ccc(Cl)cc1)c1nc2sc(C)c(C)c2c(=O)[nH]1 | inconclusive [inhibitor, single point]
58 | CCOCCCNCc1cc(Br)ccc1OCc1ccccc1 | active: 10.4 µM
59 | Cc1cc(C)n(CC(=O)N/N=C/c2cc(Br)cc([N+](=O)[O-])c2O)n1 | inconclusive [inhibitor, single point]
60 | O=C(NCc1cccc(Cl)c1)c1cccc(OC2CCN(C(=O)C3CC3)CC2)c1 | inconclusive [inhibitor, single point]
61 | NC1=NC[C@H](CC2CCCCC2)N1CCc1cc(C(F)(F)F)cc(C(F)(F)F)c1 | active: 2.94 µM
62 | COc1c(S(=O)(=O)N2CCN(C)CC2)ccc(Cl)c1Cl | inconclusive [inhibitor, partial curve, poor fit]
63 | COc1ccc(CCNC(=O)c2oc3ccc(S(=O)(=O)N4CCOCC4)cc3c2C)cc1OC | inconclusive [inhibitor, partial curve]
64 | CS(=O)(=O)NCc1nnc(SCc2ccccc2C(F)(F)F)o1 | inconclusive [inhibitor, single point]
65 | O=C(CCCCCN1C(=O)[C@@H]2Cc3ccccc3CN2C1=O)NCCc1ccccc1 | inconclusive [inhibitor, single point]
66 | COC(=O)c1ccccc1NC(=O)COc1ccc(S(=O)(=O)NC(C)C)cc1 | inconclusive [inhibitor, partial curve, poor fit]
67 | Cc1ccc(NC(=O)C2CCC(CNC(=O)[C@@H]3Cc4ccccc4CN3)CC2)cc1 (stereo not given in full) | inconclusive [inhibitor, single point]
68 | CC(C)(C)C(=O)Nc1ccc(Sc2ccc([N+](=O)[O-])cc2)cc1 | inconclusive [inhibitor, single point]
69 | CC(=O)N1c2ccc(S(=O)(=O)N3CCC(C(=O)N4CCN(c5ccccc5)CC4)CC3)cc2CC1C (stereo not given) | inconclusive [inhibitor, single point]
70 | COc1ccccc1N1CCN(C(=O)c2ccc(-c3ccc(Cl)cc3)o2)CC1 | inconclusive [inhibitor, single point]
